Reference: publication PMC5700166
This is a selection; strong and weak results do not stand in their true shares. For some assays here: The list includes weakly bound sequences.

Tests used:
Experiment in all cases: protein-binding microarray (PBM)
Details in all cases: PBM: ~300 nM protein, 6 mM HEPES pH 7.8, 80 mM KCl, 0.5 mM EDTA, 0.5 mM EGTA, 6% glycerol, 35 ng/ul poly-dIdC, 1% milk, 1 h, room temperature; Ap Aiptasia and Nv Nematostella (sea anemones) / Co Capsaspora / Aq Amphimedon (sponge) / Dm Drosophila / Hu human; RHD is the Rel homology domain; high values mean tight binding; most listed sequences are background and not binding sites; double strand, one strand shown
GST-Ap-NF-kB RHD = target: T1, GST-Ap-NF-kB RHD (UniProt A0A913YAJ5)
T1 sequence: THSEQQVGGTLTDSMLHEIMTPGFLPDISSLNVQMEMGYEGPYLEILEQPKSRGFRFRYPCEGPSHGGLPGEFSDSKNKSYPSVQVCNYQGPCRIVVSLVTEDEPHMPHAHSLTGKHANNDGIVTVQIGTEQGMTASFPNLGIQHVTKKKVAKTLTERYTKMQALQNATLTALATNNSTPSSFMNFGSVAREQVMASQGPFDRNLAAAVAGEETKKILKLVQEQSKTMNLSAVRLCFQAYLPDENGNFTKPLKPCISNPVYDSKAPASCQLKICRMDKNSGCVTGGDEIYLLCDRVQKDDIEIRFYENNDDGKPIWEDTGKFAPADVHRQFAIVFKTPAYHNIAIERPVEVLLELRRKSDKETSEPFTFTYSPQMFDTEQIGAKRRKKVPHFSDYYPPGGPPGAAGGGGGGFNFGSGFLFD

GST-Dm-Relish = target: T2, GST-Dm-Relish (UniProt Q94527)
T2 sequence: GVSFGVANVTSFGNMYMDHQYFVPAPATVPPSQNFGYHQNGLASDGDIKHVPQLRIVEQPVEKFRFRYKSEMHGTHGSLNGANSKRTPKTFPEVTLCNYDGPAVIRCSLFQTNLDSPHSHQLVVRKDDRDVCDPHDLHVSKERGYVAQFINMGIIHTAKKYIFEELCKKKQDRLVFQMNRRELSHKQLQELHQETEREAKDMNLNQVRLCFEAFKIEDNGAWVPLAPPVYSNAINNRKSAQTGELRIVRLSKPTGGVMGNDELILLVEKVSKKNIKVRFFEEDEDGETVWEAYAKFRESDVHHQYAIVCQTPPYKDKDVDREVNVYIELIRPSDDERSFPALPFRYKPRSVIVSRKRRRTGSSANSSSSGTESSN

GST-Aq-NF-kB = target: T3, GST-Aq-NF-kB (UniProt A9Y5G7)
T3 sequence: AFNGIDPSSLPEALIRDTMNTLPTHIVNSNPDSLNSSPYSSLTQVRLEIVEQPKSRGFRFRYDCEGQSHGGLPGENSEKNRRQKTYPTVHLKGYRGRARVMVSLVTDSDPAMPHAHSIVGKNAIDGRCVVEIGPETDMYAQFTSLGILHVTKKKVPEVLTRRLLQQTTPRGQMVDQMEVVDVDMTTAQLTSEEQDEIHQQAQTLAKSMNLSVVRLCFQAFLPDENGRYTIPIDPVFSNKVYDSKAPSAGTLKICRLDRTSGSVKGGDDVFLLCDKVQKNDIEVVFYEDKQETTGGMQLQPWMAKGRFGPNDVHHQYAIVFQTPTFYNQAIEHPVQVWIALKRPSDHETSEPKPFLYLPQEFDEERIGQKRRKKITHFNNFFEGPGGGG

Sequence “CCGATTAACATCAGGGAAACCCATGATGTTAATCGGGTCTTGATTCGCTTGACGCTGCTG” has a binding signal (GST-Ap-NF-kB RHD) of 3.64 z-score.
Work on “CCGATTAACATCAGAGTATCCCCTGATGTTAATCGGGTCTTGATTCGCTTGACGCTGCTG” yielded a binding signal (GST-Ap-NF-kB RHD) of 5.9 z-score.
Sequence “CCGATTAACATCAAGGGGGATACTGATGTTAATCGGGTCTTGATTCGCTTGACGCTGCTG” has a binding signal (GST-Ap-NF-kB RHD) of 6.74 z-score.
In the case of “CCGATTAACATCAGCATTTTCCCTGATGTTAATCGGGTCTTGATTCGCTTGACGCTGCTG”, the binding signal (GST-Dm-Relish) is reported as 0.976 z-score and the binding signal (GST-Aq-NF-kB) is reported as 3.68 z-score.
“CCGATTAACATCACCCCCCCCCGTGATGTTAATCGGGTCTTGATTCGCTTGACGCTGCTG” gave a binding signal (GST-Ap-NF-kB RHD) of 7.33 z-score.
“CCGATTAACATCAGGGGAAAGCATGATGTTAATCGGGTCTTGATTCGCTTGACGCTGCTG” was tested, and the binding signal (GST-Ap-NF-kB RHD) was 5.49 z-score.
“CCGATTAACATCAACGTTTTCCCTGATGTTAATCGGGTCTTGATTCGCTTGACGCTGCTG” showed a binding signal (GST-Dm-Relish) of 1.51 z-score and a binding signal (GST-Aq-NF-kB) of 3.21 z-score.
Sequence “CCGATTAACATCAGGGAAATACCTGATGTTAATCGGGTCTTGATTCGCTTGACGCTGCTG” has a binding signal (GST-Dm-Relish) of 8.42 z-score and a binding signal (GST-Aq-NF-kB) of 9.82 z-score.
“CCGATTAACATCACGGGGATTTATGATGTTAATCGGGTCTTGATTCGCTTGACGCTGCTG” was tested, and the binding signal (GST-Dm-Relish) was 8.32 z-score and the binding signal (GST-Aq-NF-kB) was 5.47 z-score.
“CCGATTAACATCAGGGAAGACGTTGATGTTAATCGGGTCTTGATTCGCTTGACGCTGCTG” gave a binding signal (GST-Dm-Relish) of 0.824 z-score and a binding signal (GST-Aq-NF-kB) of 1.11 z-score.
“CCGATTAACATCAGGGGCAACCCTGATGTTAATCGGGTCTTGATTCGCTTGACGCTGCTG” gave a binding signal (GST-Ap-NF-kB RHD) of 2.71 z-score.
In the case of “CCGATTAACATCAAAAGTCCCCTTGATGTTAATCGGGTCTTGATTCGCTTGACGCTGCTG”, the binding signal (GST-Dm-Relish) is reported as 9.45 z-score and the binding signal (GST-Aq-NF-kB) is reported as 7.89 z-score.
“CCGATTAACATCATGTACGGGAATGATGTTAATCGGGTCTTGATTCGCTTGACGCTGCTG” showed a binding signal (GST-Dm-Relish) of 0.678 z-score and a binding signal (GST-Aq-NF-kB) of 3.27 z-score.
